Experimental data: publication PMC8527048
No constants are given. Whether binding was seen depends on the method and setting. In cells and extracts the contact can be indirect. Some binding calls cover weakened binding; strength is not graded here. Tags and fused reporters may be left off the sequences shown. Each block holds one binder with its values, some of them ahead of it.

Assays:
[1] = target: T1, TS-5-LO (Twin-Strep-tagged 5-lipoxygenase) in BMMCL (UniProt P48999); experiment: pull-down; Strep-Tactin Superflow resin holds the TS-tagged protein from postnuclear lysates (1% CHAPS, 150 uM glutathione, pH 6.8, 4°C) of BMMCL, resting or antigen (TNP-BSA)-activated; immunoblot
T1 sequence: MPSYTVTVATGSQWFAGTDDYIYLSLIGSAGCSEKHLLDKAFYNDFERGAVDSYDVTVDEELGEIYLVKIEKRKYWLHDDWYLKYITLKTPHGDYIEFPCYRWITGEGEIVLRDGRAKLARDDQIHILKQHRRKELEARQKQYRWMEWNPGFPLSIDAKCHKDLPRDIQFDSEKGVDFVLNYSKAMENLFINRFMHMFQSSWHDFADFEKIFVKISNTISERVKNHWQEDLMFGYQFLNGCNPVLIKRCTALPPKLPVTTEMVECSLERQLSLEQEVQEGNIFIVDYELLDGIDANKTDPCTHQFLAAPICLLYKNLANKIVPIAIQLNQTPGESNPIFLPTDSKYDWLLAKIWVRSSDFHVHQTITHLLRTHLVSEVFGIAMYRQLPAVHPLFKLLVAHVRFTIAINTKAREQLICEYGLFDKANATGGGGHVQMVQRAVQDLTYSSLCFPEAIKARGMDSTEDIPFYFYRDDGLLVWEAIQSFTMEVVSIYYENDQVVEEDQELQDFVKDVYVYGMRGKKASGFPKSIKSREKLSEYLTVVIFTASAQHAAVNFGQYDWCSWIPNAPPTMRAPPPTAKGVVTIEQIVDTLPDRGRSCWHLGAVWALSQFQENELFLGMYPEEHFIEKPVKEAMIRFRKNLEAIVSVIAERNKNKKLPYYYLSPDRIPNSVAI

[2] = target: T2, ORMDL3 Twin-Strep tag (TS) (UniProt Q9CPZ6); experiment: pull-down; ORMDL3 Twin-Strep tag as bait; immunoblot with SPTLC2 antibody ab23696; cells not given
T2 sequence: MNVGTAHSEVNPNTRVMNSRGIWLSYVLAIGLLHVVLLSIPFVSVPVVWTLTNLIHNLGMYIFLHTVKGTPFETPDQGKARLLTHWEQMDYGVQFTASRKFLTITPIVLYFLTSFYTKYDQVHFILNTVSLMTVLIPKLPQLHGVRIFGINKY

GST-5-LO [3] = target: T3, GST-5-LO (UniProt P48999); experiment: pull-down; GST pull-downs combined with BMMC lysates containing endogenous levels of the proteins; immunoblot; only the target purified
T3 sequence: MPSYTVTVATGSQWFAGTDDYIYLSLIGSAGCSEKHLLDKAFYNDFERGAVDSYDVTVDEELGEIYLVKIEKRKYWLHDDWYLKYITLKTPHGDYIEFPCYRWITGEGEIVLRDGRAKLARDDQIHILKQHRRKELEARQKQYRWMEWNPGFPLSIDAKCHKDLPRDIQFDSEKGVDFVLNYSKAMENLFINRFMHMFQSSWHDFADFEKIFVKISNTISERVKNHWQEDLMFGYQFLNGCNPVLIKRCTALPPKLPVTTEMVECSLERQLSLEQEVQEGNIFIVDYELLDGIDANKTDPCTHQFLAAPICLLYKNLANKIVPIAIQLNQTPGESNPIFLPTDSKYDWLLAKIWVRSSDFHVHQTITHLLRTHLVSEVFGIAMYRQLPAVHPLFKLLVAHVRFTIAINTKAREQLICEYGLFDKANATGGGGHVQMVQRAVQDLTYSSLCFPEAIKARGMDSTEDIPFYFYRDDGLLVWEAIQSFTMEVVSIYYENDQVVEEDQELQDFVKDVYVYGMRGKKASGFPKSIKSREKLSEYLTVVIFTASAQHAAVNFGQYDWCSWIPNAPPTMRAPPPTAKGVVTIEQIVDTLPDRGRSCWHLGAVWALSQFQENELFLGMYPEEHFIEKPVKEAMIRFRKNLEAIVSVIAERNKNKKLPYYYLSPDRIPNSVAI

[4] = target: T4, TS-5-LO (Twin-Strep-tagged 5-lipoxygenase) in HEK293FT cells (UniProt P48999); experiment: pull-down; Strep-Tactin Superflow resin holds the TS-tagged protein from postnuclear lysates (1% CHAPS, 50 mM Hepes-KOH, 150 mM KOAc, pH 6.8, 4°C) of transduced HEK293FT cells, resting or activated with thapsigargin (0, 3, 15, 25 min); immunoblot
T4 sequence: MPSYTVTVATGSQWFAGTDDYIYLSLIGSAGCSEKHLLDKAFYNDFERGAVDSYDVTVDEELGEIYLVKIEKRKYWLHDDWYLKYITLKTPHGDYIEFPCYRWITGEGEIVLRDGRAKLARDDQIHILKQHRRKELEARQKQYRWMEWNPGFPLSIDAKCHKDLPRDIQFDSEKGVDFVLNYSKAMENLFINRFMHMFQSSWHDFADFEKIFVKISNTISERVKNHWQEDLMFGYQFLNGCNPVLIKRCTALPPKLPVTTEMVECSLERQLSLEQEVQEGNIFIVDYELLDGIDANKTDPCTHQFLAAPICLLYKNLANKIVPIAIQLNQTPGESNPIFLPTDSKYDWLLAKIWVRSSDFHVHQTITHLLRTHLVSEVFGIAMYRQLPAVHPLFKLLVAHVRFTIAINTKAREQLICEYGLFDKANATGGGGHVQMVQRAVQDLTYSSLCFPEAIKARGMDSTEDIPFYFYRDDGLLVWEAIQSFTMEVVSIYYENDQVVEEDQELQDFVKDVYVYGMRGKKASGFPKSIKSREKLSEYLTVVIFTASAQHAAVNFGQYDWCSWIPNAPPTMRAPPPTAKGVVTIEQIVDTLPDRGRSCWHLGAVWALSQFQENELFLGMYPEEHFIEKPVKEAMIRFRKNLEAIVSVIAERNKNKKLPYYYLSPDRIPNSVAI

GST-5-LO [5] = target: T3, GST-5-LO; experiment: pull-down; GST-tagged protein from bacterial lysate on glutathione agarose beads, washed; in vitro-translated 35S-methionine-labeled protein added, 1 h at 4°C, Hepes-KOH buffer pH 6.8 with 1% CHAPS and 5 mM DTT; autoradiography; only the target purified
GST-ORMDL3 = target: T5, GST-ORMDL3 (UniProt Q9CPZ6); experiment: pull-down; GST pull-downs combined with BMMC lysates containing endogenous levels of the proteins; immunoblot; only the target purified
T5 sequence: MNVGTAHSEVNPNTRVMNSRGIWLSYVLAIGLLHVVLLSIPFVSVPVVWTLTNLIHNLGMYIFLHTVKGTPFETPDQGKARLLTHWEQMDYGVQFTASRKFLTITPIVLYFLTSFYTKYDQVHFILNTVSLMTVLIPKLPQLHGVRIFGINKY

- binding [1]: binds
B1: SPTLC2, endogenous in BMMCL (protein, UniProt P97363 1-560)
chain: MRPEPGGCCCRRPMRANGCVKNGEVRNGYLRSSTATVAAAGQIHHVTENGGLYKRPFNEAFEETPMLVAVLTYVGYGVLTLFGYLRDFLRHWRIEKCHHATEREEQKDFVSLYQDFENFYTRNLYMRIRDNWNRPICSVPGAKVDIMERKSHDYNWSFKYTGNIIKGVINMGSYNYLGFARNTGSCQEAAAEVLKEYGAGVCSTRQEIGNLDKHEELEKLVARFLGVEAAMTYGMGFATNSMNIPALVGKGCLILSDELNHASLVLGARLSGATIRIFKHNNMQSLEKLLKDAIVYGQPRTRRPWKKILILVEGIYSMEGSIVRLPEVIALKKKYKAYLYLDEAHSIGALGPSGRGVVDYFGLDPEDVDVMMGTFTKSFGASGGYIGGKKELIDYLRTHSHSAVYATSMSPPVMEQIITSMKCIMGQDGTSLGKECIQQLAENTRYFRRRLKEMGFIIYGNEDSPVVPLMLYMPAKIGAFGREMLKRNIGVVVVGFPATPIIESRARFCLSAAHTKEILDTALKEIDEVGDLLQLKYSRHRLVPLLDRPFDETTYEETED

- binding [2]: binds
B2: SPTLC2 (lower, membrane-bound band), cells not stated (protein, UniProt P97363 1-560)
chain: MRPEPGGCCCRRPMRANGCVKNGEVRNGYLRSSTATVAAAGQIHHVTENGGLYKRPFNEAFEETPMLVAVLTYVGYGVLTLFGYLRDFLRHWRIEKCHHATEREEQKDFVSLYQDFENFYTRNLYMRIRDNWNRPICSVPGAKVDIMERKSHDYNWSFKYTGNIIKGVINMGSYNYLGFARNTGSCQEAAAEVLKEYGAGVCSTRQEIGNLDKHEELEKLVARFLGVEAAMTYGMGFATNSMNIPALVGKGCLILSDELNHASLVLGARLSGATIRIFKHNNMQSLEKLLKDAIVYGQPRTRRPWKKILILVEGIYSMEGSIVRLPEVIALKKKYKAYLYLDEAHSIGALGPSGRGVVDYFGLDPEDVDVMMGTFTKSFGASGGYIGGKKELIDYLRTHSHSAVYATSMSPPVMEQIITSMKCIMGQDGTSLGKECIQQLAENTRYFRRRLKEMGFIIYGNEDSPVVPLMLYMPAKIGAFGREMLKRNIGVVVVGFPATPIIESRARFCLSAAHTKEILDTALKEIDEVGDLLQLKYSRHRLVPLLDRPFDETTYEETED

- binding (GST-5-LO [3]): binds
B3: ORMDL3, endogenous in BMMC (protein, UniProt Q9CPZ6 1-153)
chain: MNVGTAHSEVNPNTRVMNSRGIWLSYVLAIGLLHVVLLSIPFVSVPVVWTLTNLIHNLGMYIFLHTVKGTPFETPDQGKARLLTHWEQMDYGVQFTASRKFLTITPIVLYFLTSFYTKYDQVHFILNTVSLMTVLIPKLPQLHGVRIFGINKY

- binding [4]: binds
B4: HA-ORMDL3 (protein, UniProt Q9CPZ6 1-153)
chain: MNVGTAHSEVNPNTRVMNSRGIWLSYVLAIGLLHVVLLSIPFVSVPVVWTLTNLIHNLGMYIFLHTVKGTPFETPDQGKARLLTHWEQMDYGVQFTASRKFLTITPIVLYFLTSFYTKYDQVHFILNTVSLMTVLIPKLPQLHGVRIFGINKY

- binding (GST-5-LO [5]): binds
B5: ^35S-ORMDL3 (protein, UniProt Q9CPZ6 1-153)
chain: MNVGTAHSEVNPNTRVMNSRGIWLSYVLAIGLLHVVLLSIPFVSVPVVWTLTNLIHNLGMYIFLHTVKGTPFETPDQGKARLLTHWEQMDYGVQFTASRKFLTITPIVLYFLTSFYTKYDQVHFILNTVSLMTVLIPKLPQLHGVRIFGINKY
modifications: 35S-labeled L-methionine

- binding [4]: binds
B6: FLAG-ORMDL3 (protein, UniProt Q9CPZ6 1-153)
chain: MNVGTAHSEVNPNTRVMNSRGIWLSYVLAIGLLHVVLLSIPFVSVPVVWTLTNLIHNLGMYIFLHTVKGTPFETPDQGKARLLTHWEQMDYGVQFTASRKFLTITPIVLYFLTSFYTKYDQVHFILNTVSLMTVLIPKLPQLHGVRIFGINKY

- binding [4]: binds
B7: SPTLC1, long-chain 1 subunit of serine palmitoyltransferase, endogenous in HEK293FT (protein, UniProt O15269 1-473)
chain: MATATEQWVLVEMVQALYEAPAYHLILEGILILWIIRLLFSKTYKLQERSDLTVKEKEELIEEWQPEPLVPPVPKDHPALNYNIVSGPPSHKTVVNGKECINFASFNFLGLLDNPRVKAAALASLKKYGVGTCGPRGFYGTFDVHLDLEDRLAKFMKTEEAIIYSYGFATIASAIPAYSKRGDIVFVDRAACFAIQKGLQASRSDIKLFKHNDMADLERLLKEQEIEDQKNPRKARVTRRFIVVEGLYMNTGTICPLPELVKLKYKYKARIFLEESLSFGVLGEHGRGVTEHYGINIDDIDLISANMENALASIGGFCCGRSFVIDHQRLSGQGYCFSASLPPLLAAAAIEALNIMEENPGIFAVLKEKCGQIHKALQGISGLKVVGESLSPAFHLQLEESTGSREQDVRLLQEIVDQCMNRSIALTQARYLEKEEKCLPPPSIRVVVTVEQTEEELERAASTIKEVAQAVLL

- binding [4]: binds
B8: SPTLC2, long-chain 2 subunit of serine palmitoyltransferase, endogenous in HEK293FT (protein, UniProt O15270 1-562)
chain: MRPEPGGCCCRRTVRANGCVANGEVRNGYVRSSAAAAAAAAAGQIHHVTQNGGLYKRPFNEAFEETPMLVAVLTYVGYGVLTLFGYLRDFLRYWRIEKCHHATEREEQKDFVSLYQDFENFYTRNLYMRIRDNWNRPICSVPGARVDIMERQSHDYNWSFKYTGNIIKGVINMGSYNYLGFARNTGSCQEAAAKVLEEYGAGVCSTRQEIGNLDKHEELEELVARFLGVEAAMAYGMGFATNSMNIPALVGKGCLILSDELNHASLVLGARLSGATIRIFKHNNMQSLEKLLKDAIVYGQPRTRRPWKKILILVEGIYSMEGSIVRLPEVIALKKKYKAYLYLDEAHSIGALGPTGRGVVEYFGLDPEDVDVMMGTFTKSFGASGGYIGGKKELIDYLRTHSHSAVYATSLSPPVVEQIITSMKCIMGQDGTSLGKECVQQLAENTRYFRRRLKEMGFIIYGNEDSPVVPLMLYMPAKIGAFGREMLKRNIGVVVVGFPATPIIESRARFCLSAAHTKEILDTALKEIDEVGDLLQLKYSRHRLVPLLDRPFDETTYEETED

- binding (GST-5-LO [3]): binds
- binding (GST-ORMDL3): binds
- binding [1]: binds
B9: SPTLC1, endogenous in mouse mast cells (protein, UniProt O35704 1-473)
chain: MATVAEQWVLVEMVQALYEAPAYHLILEGILILWIIRLVFSKTYKLQERSDLTAKEKEELIEEWQPEPLVPPVSKNHPALNYNIVSGPPTHNIVVNGKECVNFASFNFLGLLANPRVKATAFSSLKKYGVGTCGPRGFYGTFDVHLDLEERLAKFMKTEEAIIYSYGFSTIASAIPAYSKRGDIIFVDSAACFAIQKGLQASRSDIKLFKHNDVADLERLLKEQEIEDQKNPRKARVTRRFIVVEGLYMNTGTICPLPELVKLKYKYKARIFLEESLSFGVLGEHGRGVTEHYGISIDDIDLISANMENALASVGGFCCGRSFVVDHQRLSGQGYCFSASLPPLLAAAAIEALNIMEENPDIFAVLKKKCQNIHKSLQGVSGLKVVGESLSPALHLQLEESTGSREKDVKLLQAIVDQCMDKGIALTQARYLDKEEKCLPPPSIRVVVTVEQTEEELQRAASTIREAAQAVLL
